# Measurements published in the RNAGym collection of RNA variant scans (doi:10.1093/nar/gkz1192).
# Read counts are not given, so values of variants with three or more changes are uncertain.
# B1: CPEB3 Ribozyme (parent)
# chain: UAACAGGGGGCCACAGCAGAAGCGUUCACGUCGCAGCCCCUGUCAGAUUCUGGUGAAUCUGCGAAUUCUGCUGUAUAUCUC
# Variants of: B1
# Assay: self-cleavage, relative activity (ratio to wild type); higher = more cleavage; in vitro, sequencing
# Method in brief: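 Barcoded CPEB3 ribozyme mutants, produced by rounds of error-prone PCR, self-cleaved while being transcribed with T7 RNA polymerase for 5 hours at 37°C and during a subsequent 15 min DNase I step before EDTA was added. Sequencing of template-switched cDNA on Illumina gave cleaved and total reads, and DNA sequencing assigned barcodes to variants. Each variant's relative activity is its cleaved/total read fraction divided by the unmutated ribozyme's fraction, averaged across three batches. A variant needed a minimum of 5 reads.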
row,Variant,self-cleavage
1,UAACAGGGGGCCUCAGCAGAAGCGUUCACGUCGCUGCCCCUGUCAGACUCUGGUGAAUCUGCGAAUUCUGCUGUAUAUCUC,0.54
2,UAACAGGGGGCCUCAGCAGAAGCGUUCACGUCGCAGCCCCUGUCCGAUUCAGGUGAAUCUGCGAAUUCUGCUGUAUAUCUC,0.34
3,UAACAGGGGGCCUCAGCAGAAGCGUUCACGUCGCAGCCCCUGUCAGGUUCUGGUGAAUCUGCGAAUUCUGCAGUAUAUCUC,0.46
4,UAACAGGGGGCCUCAGCAGAAGCGUUCGCGUCGCAGCCCCUGUCAGUUUCUGGUGAGUCUGCGGAUUCUGCUGUAUAUCUC,0.18
5,UAACAGGGGGCCUCAGCAGAGGCGUUCACGUCGCAGCCCCUGUCAGAUUCUGGUGAAUCUGCGAACUCUGCUGUGUAUCUC,1.01
6,UAACAGGGGGCCUCAGCAGAUGCGUUCACGUCGCAGCCCCUGUCAGAUUCUGGUGAAUCUGAGAAUUCUGCUGUACAUCUC,0.16
7,UAACAGGGGGCCUCAGCAGAAGCGUUCACGUCGCAGCCCCUGUCGGAUUCUGGUGAAUCUGCGAAUUCUGCUGUUUAUCUC,1.02
8,UAACAGGGGGCCUCAGCAGAUGCGUUCACGUCGCAGCCCCUGUCAGAUUCUGGUGAGUCUGCGGACUCUGCUGUACUUCUC,0.08
9,UAACAGGGGGCCUCAGCAGAUGCGUUCACGUCGCAGCCCCUGUCAGAUUCUGGUGAAUCUGCGAGUUCUGCUGUAUAUCUC,0.18
10,UAACAGGGGGCCUCAGCAGAUGCGUUCACGUCGCAGCCCCUGUCUGGUUCUGGUGAAUCUGCGAAUUCUGCUGUAUAUCUC,0.15
11,UAACAGGGGGCCUCAGCAGAAGCGUUCUCGUCGCAGCCCCUGCCAGAUUCUGGUGAAUCUGCGAAUUCUGCUGUAUAUCUC,0.55
12,UAACAGGGGGCCUCAGCAGAAGCGUUCACGUCGCAGCCCCUGUCGGAUUCUGGUGGAUCUGCGAAUUCUGCUGUAUAUCUC,0.83
13,UAACAGGGGGCCUCAGCAGAAGCGUUCACGUCGCAGCCCCUGUCAGGUUCUGGUGAAUCUGUGAAUUCUGCUGUACUUCUC,0.3
14,UAACAGGGGGCCUCAGCAGAAGCGUUCUCGUCGCAGCCCCUGUCAGAUUCUGGUGAAUCUGCGAAUUCUGCUGUAUAACUC,1.07
15,UAACAGGGGGCCUCAGCAGAAGCGUUCGCGUCGCAGCCCCUGUCAGAUUCUGGUGAAUCUGCGUAUUCUGCUGUAUAUCUC,0.26
16,UAACAGGGGGCCUCAGCAGAAGCGUUCACGUCGCAGCCCCUGUCUGAUUCUGGUGAAUCUGCGAAUUCUGCAGUACACCUC,0.29
17,UAACAGGGGGCCUCAGCAGAAGCGUUCACGUCGCUGCCCCCGUCGGAUUCUGGUGAAUCAGCGAAUUCUGCCGUAUAUCUC,0.21

row,Variant,self-cleavage
1,UAACAGGGGGCCUCAGCAGAAGCGUUCGCGUCGCAGCCCCUGUCAGAUUCCGGUGAAUCUGCGAAUUCUGCUGUAUAUCUC,0.68
2,UAACAGGGGGCCUCAGCAGAAGCGUUCUCGUCGCAGCCCCUGUCAGAUUCUGGCGAAUCUGCGGAUACUGCUAUAUAUCUC,0.38
3,UAACAGGGGGCCUCAGCAGAUGCGUUCACGUCGCAGCCCCUGUCAGAUUCUGGUGAAUCUGCGAAUUCUGCGGUAUAUCUC,0.22
4,UAACAGGGGGCCUCAGCAGAGGCGUUCACGUCGCAGCCCCUGCCAGAUUCUGGUGAAUCAGCGAAUUCUGCUGUAAAUCUC,0.36
5,UAACAGGGGGCCUCAGCAGAAGCGUUCACGUCGCGGCCCCUGUCAGAUUCUGGUGGAUCUGCGAACUCUGCUGUAUAUCUC,1.22
6,UAACAGGGGGCCUCAGCAGAAGCGUUCGCGUCGCAGCCCCUGUCAGAUACUGGAGAAUCUGCGAAUUCAGCAGUAUAUCUC,0.11
7,UAACAGGGGGCCUCAGCAGAAGCGUUCACGUCGCAGCCCCUGUCGGAUUCUGGCGAGUCUGCGAAUACUGCUGUAUAUCUC,0.21
8,UAACAGGGGGCCUCAGCAGAAGCGUUCACGUCGCAGCCCCUGUCCGAUACUGGUGAAUCUGCGAAUUCUGCUGUAUAUCUC,0.03
9,UAACAGGGGGCCUCAGCAGAAGCGUUCACGUCGCUGCCCCUGUCAGAUUCUGGUGAAUCUGCGAGUUCUGCUGUAUAUCUC,0.43
10,UAACAGGGGGCCUCAGCAGAAGCGUUCACGUCGCAGCCCCUGUCCGAUUCUGGUGAAUCUGCGAAAUCUGCUGUAUAUCUC,0.17
11,UAACAGGGGGCCUCAGCAGAAGCGUUCUCGUCGCAGCCCCUGGUAGAUUCUGGUGAAUCUGCGAAUUCUGCUGUAUAUCUC,0.2
12,UAACAGGGGGCCUCAGCAGAAGCGUUCACGUCGCAGCCCCUGUCGGAAUCUGGUGAAUCUGCGAAUUCUGCUGUAUAUCUC,0.19
13,UAACAGGGGGCCUCAGCAGAAGCGUUCGUGUCGCAGCCCCUGUCAGAUUCUGGUGAAUCUGCGAAUUCUGCUGUAUAACUC,0.42
14,UAACAGGGGGCCUCAGCAGAAGCGUUCGCGUCGCAGCCCCUGUCUGAUUCUGGUGAAUCAGCGAAUUCUGCUGUAUAUCUC,0.88
15,UAACAGGGGGCCUCAGCAGAUGCGUUCACGUCGCAGCCCCUGUCAGAUUCUGGUGAAUCCGCGAAUCCUGCUGUAUAUCUC,0.12
16,UAACAGGGGGCCUCAGCAGAAGCGUUCACGUCGCUGCCCCUGUCAGAUUCUGGUGAACCUGCGAAUUCCGCUGUAUAUCUG,0.16
17,UAACAGGGGGCCUCAGCAGAAGCGUUCACGUCGCGGCCCCUGUCGGAUUCUGGUGAAUCCGCGAAUUCUGCUGUAUAUCUC,1.32
